Reference: PubChem BioAssay AID651567 (National Center for Advancing Translational Sciences (NCATS), 2012)
About 10 (0.8%) of roughly 1,200 compounds were called active. Not shown: some 4% with an inconclusive outcome. Calls come from the whole dose curve; as a rule, active = well fitted inhibition curve with a large enough effect; inconclusive = small, poorly fitted or top-dose-only effect; inactive = no such curve, though single readings can be large or run the other way. Some of the results follow.

assay: qHTS Assay to Find Inhibitors of Chronic Active B-Cell Receptor Signaling: Hit Validation in OCI-Ly3 Assay; conditions: OCI-Ly3 IkB-luciferase reporter, Chroma-Glo luminescence, 4 h; series mostly up to 46.1 µM; activity change, negative = inhibition: at the top concentration
From the text: Diffuse large B-cell lymphoma (DLBCL) is the most common category of non-Hodgkin lymphoma, with ~20,000 new cases per year in the United States. DLBCL should be regarded as a collection of different neoplasms. Microarray gene expression analysis has defined two principal types of DLBCL, named for their similarity to normal B cell stages or activation states: a germinal center B-cell (GCB) type, and an activated B-cell (ABC) type. In ABC-DLBCL, a constitutive high-level activity of the NF-kappaB family of transcription factors has been observed (1) and NF-kappaB target genes are more highly expressed in ABC primary tumors than in GCB tumors. Functional studies have shown a constitutive high-level activity of the IkappaB (inhibitor of kappa-B) kinase (IKK) complex. […] Further analysis of DLBCL primary tumors for NF-kappaB target gene expression imply that although CARD11 is required for constitutive IKK activity in all ABC-DLBCL lines, mutations in CARD11 may be the root cause of IKK activation only in lines or tumors with such mutations. In other words, CARD11 mutations may explain NF-kappaB activation in only 10% of ABC-DLBCL cases. […] This process has been termed 'chronic active BCR signaling' (CABS). The goal of this screen is to find small-molecule inhibitors of the CABS pathway found in ABC-DLBCL lines using a cell-based assay that measures IkappaBalpa stability, which has already been extensively validated in the OCI-Ly3 line (PubChem AID:445; REF: 4). […] Hits from the primary screen were tested in this selectivity secondary assay. NIH Molecular Libraries Probe Production Network [MLPCN] NIH Chemical Genomics Center [NCGC] MLPCN Grant: R03 DA031086 PI Name: Dr. R. Eric Davis
Cells were seeded in 1536-well plates at 5000 cells/3ul in IMDM medium containing 0.5% FBS, w/o phenol red, L-glutamine, 25 mM HEPES, 3 mg/ml sodium bicarbonate. After centrifugation for 1 min. at 1000 rpm, 23 nl of compounds or DMSO were delivered to each well using a pin tool. Then 1ul 80ng/ml doxycycline was dispensed into white solid 1536-well plates and the plates were incubated at 37C/5% C02 in a cell incubator for 4 hrs. Then 4 ul Chroma-Glo luminescent substrate mix (Promega) was added to each well. The plate was incubated at R.T. for 10-15 min. The plates were measured on a ViewLux plate reader for green luminescence (540/20 nm filter) and red luminescence (618/8 nm filter). The green and red luminescent signals were corrected for red and green luminescence filter overlap using previously determined filter calibration constants (determined using the procedure outlined in the Promega Technical Manual). The %Activity was determined from the ratio of corrected green/red luminescent values. Green luminescent and ratio %Activity was determined by normalizing to the difference in signal between basal cells (0% Activity) and cells incubated with 10 uM of the proteasome inhibitor MG-132 (100% Activity). Red luminescent %Activity was normalized to the difference between red luminesence in basal cells (0%Activity) and zero luminescence (-100% Activity). Concentration-response curves were fitted to the signals arising from the green luminescence (I-kappa-B-alpha-luciferase fusion; IkB-luc) and the red luminescence (unfused luciferase; luc) as well as the calculated ratio. The concentration-effect curves were then classified based on curve quality (r2), response magnitude and degree of measured activity. Compounds were then categorized based on their concentration-response curves for all three datasets (Ikb-luc, luc and ratio).
% is set by controls: 0 for no effect and ±100 for the full control effect; potency is the fitted concentration of half-maximal effect.

SMILES	activity change, negative = inhibition	Potency
CCn1ncc(C2=NOC(C(=O)NCc3ccccc3)C2)c1C (stereo not given)	inactive: -1.31%	
Cc1c(CCC(=O)N2CCC[C@H]2C(=O)O)c(=O)oc2cc3oc4c(c3cc12)CCCC4	inactive: -0.876%	
O=C(c1ccc(Br)cc1)c1cc([N+](=O)[O-])ccc1N1CCCCC1	inactive: -5.32%	
COc1ccc(/C=N/Nc2nccnc2Cl)c(OC)c1	inactive: -14.9%	
Cc1nn(-c2ccccc2)c(C)c1/C=N/NC(=O)c1cc(-c2cccs2)[nH]n1		active: 18.4 µM
Cc1cccc(OCCCN2C(=O)C(=O)c3cc(C)ccc32)c1	inactive: -0.571%	
Cc1ccsc1/C=N/NC(=O)c1cc(-c2ccncc2)nc2ccccc12	inactive: -5.84%	
CC(=O)Nc1ccc(S(=O)(=O)N2CCSc3ccccc32)cc1	inactive: 0.241%	
NC(=S)N=Nc1c(O)n(CCCl)c2ccccc12	inactive: -0.383%	
CCC(=O)NCc1cc(-c2nn(C)c(=O)c3ccccc23)ccc1OC	inactive: -3.24%	
CCCc1nc([N+](=O)[O-])c(S(=O)(=O)c2ccccc2)n1CC(C)C	inactive: -25.8%	
O=C(/C=C\c1ccccc1)Oc1cccc2cccnc12	inactive: -0.0971%	
O=C(OCC(O)CO)c1ccccc1Nc1ccnc2cc(Cl)ccc12 (stereo not given)	inactive: -4.64%	
CCN(CC)S(=O)(=O)c1ccc(N/N=C(\C)c2ccc(OC)cc2O)nc1	inactive: -0.838%	
CCc1ccccc1NC(=S)N=Nc1c(O)n(C)c2ccc(S(=O)(=O)N3CCOCC3)cc12	inactive: -9.04%	
Cc1ccc(C2OCC3(CO)COC(c4ccc(C)cc4)N23)cc1 (stereo not given)	inactive: -0.266%	
COc1cc2c(cc1OC)-c1cc(Nc3ccccc3)nc(=O)n1CC2	inactive: -0.124%	
Fc1ccc(/C=N/NC2=Nc3cccc4cccc2c34)cc1	inactive: -1.29%	
O=Cc1ccccc1OCCOc1ccccc1C=O	inactive: -2.1%	
CCCCC[C@H](O)/C=C/C1=C(CCCCCCC(=O)O)C(=O)CC1	inactive: -0.832%	
Cc1ccc(C(=O)c2cc([N+](=O)[O-])ccc2N2CCCCC2)cc1	inactive: -5.17%	
COc1ccc(C(=O)/C=C2/c3ccccc3CC(C)(C)N2C)cc1	inactive: -1.76%	
CC(=O)N1CC(=O)N=C1SCC(=O)Nc1nc(C)c(-c2ccccc2)s1	inactive: -4.44%	
COC(=O)C1C(O)=C(C=Nc2cccc3ccccc23)C(=O)CC1(C)C (stereo not given)	inactive: -0.573%	
Cc1cc(C)c2ccc(/C=N/O)nc2c1O	inactive: -3.1%	
Cc1ccc2[nH]c(-c3cccc(F)c3)cc(=O)c2c1	inactive: -3.54%	
CCOC(=O)CSC1=C(C#N)C(c2ccc(C)o2)CC(=O)N1 (stereo not given)	inactive: -2.72%	
COCCn1nnnc1C(C(C)C)N(Cc1ccccc1)Cc1cc2cc(OC)ccc2[nH]c1=O (stereo not given)	inactive: -1.07%	
COc1cc(OC)cc(C(=O)NCC(=O)N2CC=C(c3ccccc3)CC2)c1	inactive: -2.46%	
COC(=O)C1=C(C)NC(C)=C(C(=O)OC)C1c1ccc(N(C)C)cc1	inactive: -0.707%	
